Assay results from publication PMC4336329 (PLoS ONE, 2015).
The whole screen tested about 310,000 compounds, of which about 2,200 (0.71%) showed an effect of 50% or more. Effects have a minus sign here. The list shows a part of the results.

target: human ether-à-go-go-related gene (hERG) potassium channel (human, UniProt Q12809); assay: primary screen, population patch clamp on CHO cells stably expressing hERG
Sequence (Q12809 whole entry, looked up): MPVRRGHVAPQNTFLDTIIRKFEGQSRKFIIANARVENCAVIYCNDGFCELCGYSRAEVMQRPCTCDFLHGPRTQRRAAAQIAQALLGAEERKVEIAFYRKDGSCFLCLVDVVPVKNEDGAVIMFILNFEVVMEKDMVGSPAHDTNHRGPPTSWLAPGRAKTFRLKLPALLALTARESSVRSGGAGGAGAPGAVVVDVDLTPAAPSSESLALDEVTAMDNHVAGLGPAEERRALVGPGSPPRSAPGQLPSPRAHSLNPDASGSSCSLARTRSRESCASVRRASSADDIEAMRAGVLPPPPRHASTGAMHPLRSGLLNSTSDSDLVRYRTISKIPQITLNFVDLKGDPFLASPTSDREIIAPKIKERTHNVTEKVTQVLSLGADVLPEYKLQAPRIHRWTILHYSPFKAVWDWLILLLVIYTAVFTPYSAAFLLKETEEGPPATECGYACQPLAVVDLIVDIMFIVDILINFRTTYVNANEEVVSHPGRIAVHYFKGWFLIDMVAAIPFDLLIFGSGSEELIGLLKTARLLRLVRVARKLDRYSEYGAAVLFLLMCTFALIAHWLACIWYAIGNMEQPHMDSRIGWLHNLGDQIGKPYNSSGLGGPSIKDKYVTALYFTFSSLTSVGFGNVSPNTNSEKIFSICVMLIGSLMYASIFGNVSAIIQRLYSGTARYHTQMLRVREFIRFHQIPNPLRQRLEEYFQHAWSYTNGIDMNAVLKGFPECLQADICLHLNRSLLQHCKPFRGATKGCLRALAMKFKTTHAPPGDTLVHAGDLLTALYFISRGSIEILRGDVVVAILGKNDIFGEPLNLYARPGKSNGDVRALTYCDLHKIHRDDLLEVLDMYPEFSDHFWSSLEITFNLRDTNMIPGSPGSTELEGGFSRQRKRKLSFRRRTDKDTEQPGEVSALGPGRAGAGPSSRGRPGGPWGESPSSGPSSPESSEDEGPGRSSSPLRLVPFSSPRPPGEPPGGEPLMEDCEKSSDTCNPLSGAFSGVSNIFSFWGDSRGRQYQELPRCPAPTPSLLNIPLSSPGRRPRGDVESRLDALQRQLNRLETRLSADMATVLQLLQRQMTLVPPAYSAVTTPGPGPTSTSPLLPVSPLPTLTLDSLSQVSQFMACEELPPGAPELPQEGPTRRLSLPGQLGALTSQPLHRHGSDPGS

Which “hERG current change (%, negative = inhibition) at 1uM” value does the source give for `O=C1CCC(=O)N1CNc1ccccn1` here?
The value was 10.9%.

`CC(C)NC(=O)c1ccccc1NC(=O)Cc1ccc([N+](=O)[O-])cc1` was tested. Which “hERG current change (%, negative = inhibition) at 1uM” value did it give?
Its value is -4.56%.

With `CCOC(=O)c1ccc(-n2c(O)c(/C=N/NC(=O)C3COc4ccccc4O3)c3ccccc3c2=O)cc1` (centres unmarked) as the compound, how does the “hERG current change (%, negative = inhibition) at 1uM” value read?
Its value is 1.15%.

`COCCC(=O)N1CCC(Oc2ccc(C(=O)NCCCC3CCCC3)cc2)CC1` was tested. Which “hERG current change (%, negative = inhibition) at 1uM” value did it give?
The value was -3.93%.

With `Cn1c(N)c(C(=O)COC(=O)CCCc2c[nH]c3ccccc23)c(=O)n(C)c1=O` as the compound, how does the “hERG current change (%, negative = inhibition) at 1uM” value read?
The value was 1.88%.

For `CC(=O)c1c(O)c2ccccc2n(Cc2ccccc2)c1=O`, which “hERG current change (%, negative = inhibition) at 1uM” value is on record?
Its value is 3.13%.

How did the “hERG current change (%, negative = inhibition) at 1uM” value turn out when `O=C(O)c1cccc([N+](=O)[O-])c1C(=O)Nc1ccc2ccccc2c1` was run?
The value was 3.62%.

With `Cc1cc(/C=N/n2cnnc2)c(O)c([N+](=O)[O-])c1` as the compound, how does the “hERG current change (%, negative = inhibition) at 1uM” value read?
The value was 2.4%.

`O=[N+]([O-])c1ccc(CN2CCN(c3ccc([N+](=O)[O-])cc3)CC2)cc1` was tested. Which “hERG current change (%, negative = inhibition) at 1uM” value did it give?
Its value is -38%.

`Cc1ccccc1NC(=O)C(C)Sc1nnc(-c2ccncc2)n1CC1CCCO1` (centres unmarked) was tested. Which “hERG current change (%, negative = inhibition) at 1uM” value did it give?
Its value is 15.7%.

For `O=C(/C=C/c1ccc2c(c1)OCO2)N1CCN(c2ccc(Cl)cc2)CC1`, which “hERG current change (%, negative = inhibition) at 1uM” value is on record?
The value was 14.2%.

Which “hERG current change (%, negative = inhibition) at 1uM” value does the source give for `CC(C)c1ccc(C(O)Cc2nc3ccccc3n2C)cc1` (centres unmarked) here?
The value was 10.4%.

With `CC1(C)Cc2ccccc2-c2nc(NCCCO)[nH]c(=O)c21` as the compound, how does the “hERG current change (%, negative = inhibition) at 1uM” value read?
Its value is -9.11%.

With `C=CCn1c(SCC(=O)NCC2CCCO2)nc2scc(-c3ccco3)c2c1=O` (centres unmarked) as the compound, how does the “hERG current change (%, negative = inhibition) at 1uM” value read?
The value was -13.2%.

With `CCn1c(C)nc2cc(C(=O)N=Nc3c(O)[nH]c4c(C)cc(C)cc34)ccc21` as the compound, how does the “hERG current change (%, negative = inhibition) at 1uM” value read?
Its value is 14.6%.

Which “hERG current change (%, negative = inhibition) at 1uM” value does the source give for `CCN(CC)S(=O)(=O)c1ccc(Oc2cccc(C(C)=O)c2)nc1` here?
Its value is 3.84%.

How did the “hERG current change (%, negative = inhibition) at 1uM” value turn out when `O=C1CN(C(=O)CSc2nnc(-c3ccccc3)n2Cc2ccc3c(c2)OCO3)c2ccccc2N1` was run?
The value was 5.59%.

`COc1ccc(N2CCN(C(=O)C3(S(=O)(=O)c4ccc(C)cc4)CC3)CC2)cc1` was tested. Which “hERG current change (%, negative = inhibition) at 1uM” value did it give?
The value was -7.35%.

For `Cc1cccc(CNC(=O)c2ccc3nc(Cc4ccccc4F)oc3c2)n1`, which “hERG current change (%, negative = inhibition) at 1uM” value is on record?
The value was 12.7%.

Which “hERG current change (%, negative = inhibition) at 1uM” value does the source give for `O=C(Nc1ccc(Cl)cc1)OCc1cncs1` here?
The value was -6.49%.

With `O=C(CCCCCn1c(SCC(=O)c2ccccc2)nc2ccccc2c1=O)NCc1ccco1` as the compound, how does the “hERG current change (%, negative = inhibition) at 1uM” value read?
The value was 14.7%.

For `Cc1cc(C)cc(N2C(=O)CSC2c2ccccn2)c1` (centres unmarked), which “hERG current change (%, negative = inhibition) at 1uM” value is on record?
The value was 3.92%.

With `O=C(Nc1ccc(F)cc1F)c1cc(=O)n(-c2ccccc2)c(=O)[nH]1` as the compound, how does the “hERG current change (%, negative = inhibition) at 1uM” value read?
Its value is 6.03%.

`CCN(C1CCCCC1)S(=O)(=O)c1ccc(-n2cnnn2)c(C)c1` was tested. Which “hERG current change (%, negative = inhibition) at 1uM” value did it give?
Its value is 9.55%.

`O=C(CSCc1cccc(Cl)c1)N/N=C/c1ccc(OCC(=O)N2CCCCC2)cc1` was tested. Which “hERG current change (%, negative = inhibition) at 1uM” value did it give?
The value was 4.16%.

With `CC(CCc1ccccc1)NC(=O)COc1cc(F)ccc1[N+](=O)[O-]` (centres unmarked) as the compound, how does the “hERG current change (%, negative = inhibition) at 1uM” value read?
The value was -0.81%.

With `O=C(Nc1ccnn1C1CCN(C2CCC2)CC1)c1cccc(F)c1` as the compound, how does the “hERG current change (%, negative = inhibition) at 1uM” value read?
Its value is 1.12%.

`COc1cc2[nH]c(=O)c(C(=O)NCc3ccccc3Cl)c(O)c2cc1OC` was tested. Which “hERG current change (%, negative = inhibition) at 1uM” value did it give?
Its value is 8.46%.

Which “hERG current change (%, negative = inhibition) at 1uM” value does the source give for `CCN(CC)S(=O)(=O)c1cccc(NC(=O)COC(=O)CCC(=O)c2cccs2)c1` here?
Its value is 6.29%.

With `CN1CCCN(S(=O)(=O)c2ccc(O)c(C(=O)O)c2)CC1.Cl` as the compound, how does the “hERG current change (%, negative = inhibition) at 1uM” value read?
The value was 9.33%.

With `COc1ccc(C(=O)N/N=C/c2sc(N3CCOCC3)nc2-c2ccccc2)cc1OC` as the compound, how does the “hERG current change (%, negative = inhibition) at 1uM” value read?
The value was 3.64%.

With `O=C(O)CCC(=O)Nc1ccc(OCC2CCCO2)cc1` (centres unmarked) as the compound, how does the “hERG current change (%, negative = inhibition) at 1uM” value read?
The value was 20.1%.

For `CCN(CC)S(=O)(=O)c1cccc(C(=O)N/N=C/c2c(C)nn(-c3ccccc3)c2Cl)c1`, which “hERG current change (%, negative = inhibition) at 1uM” value is on record?
The value was 14.5%.

How did the “hERG current change (%, negative = inhibition) at 1uM” value turn out when `COCCN(CCOc1cc(C)cc(C)c1)Cc1ccc(Cl)cc1` was run?
Its value is 16.8%.

For `COc1ccc(NC(=O)N(Cc2ccc3c(c2)OCO3)C2CC(=O)N(c3ccc(OC)cc3)C2=O)cc1` (centres unmarked), which “hERG current change (%, negative = inhibition) at 1uM” value is on record?
The value was -7.51%.

Which “hERG current change (%, negative = inhibition) at 1uM” value does the source give for `O=C(c1ccccc1F)N(NC(=O)C(O)(c1ccccc1)c1ccccc1)c1ccccc1` here?
Its value is 11.7%.

How did the “hERG current change (%, negative = inhibition) at 1uM” value turn out when `Cc1cc(C)cc(Nc2cc(C)nc3nc(C)nn23)c1` was run?
Its value is -0.195%.

Which “hERG current change (%, negative = inhibition) at 1uM” value does the source give for `CCO[C@@H]1OC(C(=O)O)=C[C@H](c2ccc3c(c2)OCO3)[C@H]1CCCO` here?
Its value is 16.1%.

How did the “hERG current change (%, negative = inhibition) at 1uM” value turn out when `CSc1ccc(CN(C)CCc2ccccn2)cc1.O=C(O)C(=O)O` was run?
Its value is -21.3%.

With `O=C(Cn1cnc2ccccc21)N1CCN(S(=O)(=O)c2ccccc2)CC1` as the compound, how does the “hERG current change (%, negative = inhibition) at 1uM” value read?
Its value is 11%.

`CCN(CC)Cc1ccc(OC)c(Cl)c1.Cl` was tested. Which “hERG current change (%, negative = inhibition) at 1uM” value did it give?
The value was 4.41%.

Which “hERG current change (%, negative = inhibition) at 1uM” value does the source give for `CC(=O)Nc1ccc(S(=O)(=O)NNC(=O)C2CCCCC2)cc1` here?
Its value is 0.824%.

How did the “hERG current change (%, negative = inhibition) at 1uM” value turn out when `CCCC(C)NC(=O)c1ccccc1SC` (centres unmarked) was run?
Its value is 9.4%.

How did the “hERG current change (%, negative = inhibition) at 1uM” value turn out when `CCOCC(=O)Nc1ccc(C(=O)Nc2ccccc2Cl)cc1` was run?
Its value is 10%.

For `CCN(c1ccc(C)cc1C)S(=O)(=O)c1nnc(NC(=O)C(C)(C)C)s1`, which “hERG current change (%, negative = inhibition) at 1uM” value is on record?
The value was 13.1%.

For `CCN(CC)S(=O)(=O)c1ccc(Cl)c(NC(=O)c2ccccc2C)c1`, which “hERG current change (%, negative = inhibition) at 1uM” value is on record?
The value was 10.8%.

Which “hERG current change (%, negative = inhibition) at 1uM” value does the source give for `O=C(COC(=O)c1cc2c(s1)CCC2)Nc1ccc(F)cc1` here?
The value was 13.3%.

How did the “hERG current change (%, negative = inhibition) at 1uM” value turn out when `Cc1ccc2c(c1)N(C(=O)CCC(=O)NCCCN1CC(C)CC(C)C1)CCO2` (centres unmarked) was run?
Its value is -26.2%.

Which “hERG current change (%, negative = inhibition) at 1uM” value does the source give for `Cn1c(N)c(C(=O)/C=C/c2ccccc2)c(=O)[nH]c1=O` here?
Its value is 7.55%.

How did the “hERG current change (%, negative = inhibition) at 1uM” value turn out when `S=C(Nc1ccccc1)N1CCN(Cc2ccccc2)CC1` was run?
Its value is 6.14%.

Which “hERG current change (%, negative = inhibition) at 1uM” value does the source give for `CC1CCCN(CCC(=O)Nc2ccccc2)C1.Cl` (centres unmarked) here?
Its value is 12.3%.

With `COc1ccc(-c2csc(-n3ncc(-c4ccccn4)c3N)n2)cc1` as the compound, how does the “hERG current change (%, negative = inhibition) at 1uM” value read?
The value was 13.5%.

Which “hERG current change (%, negative = inhibition) at 1uM” value does the source give for `CCOC(=O)C1CCN(C(=O)c2ccc3c(c2)OCO3)CC1` here?
The value was 4.64%.

For `COc1cccc(NC(=O)c2ccc3c(SCC(=O)O)c4c(nc3c2)CCCC4)c1`, which “hERG current change (%, negative = inhibition) at 1uM” value is on record?
Its value is 3.61%.

Which “hERG current change (%, negative = inhibition) at 1uM” value does the source give for `CCCCC(CC)C(=O)Nc1ccc(S(=O)(=O)N2CCCC2)cc1` (centres unmarked) here?
The value was 8.72%.

For `O=C(CC(c1ccccc1)(c1ccccc1)c1ccccc1)N[C@@H](Cc1ccc(O)cc1)C(=O)O`, which “hERG current change (%, negative = inhibition) at 1uM” value is on record?
Its value is -2%.
